The whole screen tested about 310,000 compounds, of which about 2,200 (0.71%) showed an effect of 50% or more. Effects have a minus sign here. Some of the results follow.
target: human ether-à-go-go-related gene (hERG) potassium channel (human, UniProt Q12809); experiment: primary screen, population patch clamp on CHO cells stably expressing hERG
Sequence (Q12809 whole entry, looked up): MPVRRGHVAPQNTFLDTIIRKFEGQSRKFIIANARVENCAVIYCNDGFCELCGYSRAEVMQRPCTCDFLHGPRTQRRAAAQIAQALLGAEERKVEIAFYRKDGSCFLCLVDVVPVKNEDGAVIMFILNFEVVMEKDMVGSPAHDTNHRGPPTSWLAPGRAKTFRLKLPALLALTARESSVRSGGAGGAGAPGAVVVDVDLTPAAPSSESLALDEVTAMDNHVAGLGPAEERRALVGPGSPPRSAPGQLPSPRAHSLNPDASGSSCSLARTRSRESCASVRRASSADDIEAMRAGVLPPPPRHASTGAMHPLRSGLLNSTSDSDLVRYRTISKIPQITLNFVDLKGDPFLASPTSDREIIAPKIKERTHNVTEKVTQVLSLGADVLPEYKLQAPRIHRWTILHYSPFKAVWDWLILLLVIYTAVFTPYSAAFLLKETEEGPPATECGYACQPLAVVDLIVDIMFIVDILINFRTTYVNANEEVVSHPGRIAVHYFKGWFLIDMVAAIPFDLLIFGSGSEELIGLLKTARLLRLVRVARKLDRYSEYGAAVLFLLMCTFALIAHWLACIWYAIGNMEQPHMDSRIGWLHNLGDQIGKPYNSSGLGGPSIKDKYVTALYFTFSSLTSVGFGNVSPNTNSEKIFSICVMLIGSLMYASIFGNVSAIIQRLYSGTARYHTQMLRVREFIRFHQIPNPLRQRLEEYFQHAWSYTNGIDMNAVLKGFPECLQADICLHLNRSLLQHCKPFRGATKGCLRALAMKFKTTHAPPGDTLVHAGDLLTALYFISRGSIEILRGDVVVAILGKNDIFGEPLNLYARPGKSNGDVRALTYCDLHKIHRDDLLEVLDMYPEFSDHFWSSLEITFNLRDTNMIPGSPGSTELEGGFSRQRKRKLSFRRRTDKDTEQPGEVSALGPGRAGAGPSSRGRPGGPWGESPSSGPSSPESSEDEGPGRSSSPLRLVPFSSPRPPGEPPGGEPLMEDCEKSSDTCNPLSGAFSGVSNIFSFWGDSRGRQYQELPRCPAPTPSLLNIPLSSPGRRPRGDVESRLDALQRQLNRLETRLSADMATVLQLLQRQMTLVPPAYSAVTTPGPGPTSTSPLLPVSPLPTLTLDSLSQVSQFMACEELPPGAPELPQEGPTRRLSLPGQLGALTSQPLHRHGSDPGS

Row | Compound | hERG current change (%, negative = inhibition) at 1uM [%]
1 | O=C(Nc1nc(-c2ccc(S(=O)(=O)N3CCCC3)cc2)cs1)c1cccs1 | 13.7
2 | CC(=O)Nc1ccc2c(c1)n(C)c(=O)n2C | 13.1
3 | Cn1c(COc2ccccc2)nnc1SCC(=O)Nc1ccc(S(N)(=O)=O)cc1 | 4.54
4 | CSC(=NC#N)N1CCN(c2ccc(Cl)cc2)CC1 | -6.45
5 | CCC(=O)N1CCc2cc(Br)cc(S(=O)(=O)NCC3CCCN3CC)c21 (stereo not drawn) | 12.8
6 | COc1ccc(N2CCC(CNC(=S)Nc3ccc(C)cc3C)C2)cc1 (stereo not drawn) | -2.67
7 | CCCN1C2=NCCN2c2ccccc21.Cl | 0.0662
8 | CCc1noc(C)c1C(=O)OCC(=O)Nc1ncc(Cl)cc1Cl | 5.65
9 | CCC(c1nnnn1Cc1ccco1)N(Cc1ccccc1OC)Cc1cc2cc(C)ccc2[nH]c1=O (stereo not drawn) | -3.92
10 | CC(=O)Nc1nc2ccccc2n1Cc1ccc(C)cc1 | 8.6
11 | CCC1(c2ccccc2)NC(=O)N(C)C1=O (stereo not drawn) | -8.19
12 | COc1ccc(CN2CC(C(=O)NCCCN3CCOCC3)CC2=O)cc1 (stereo not drawn) | 12.8
13 | O=C(COC(=O)c1cc(-c2ccccc2)nc2ccccc12)NCC1CCCO1 (stereo not drawn) | 5.02
14 | COc1ccc(N2CCN(C(=O)COC(=O)CCc3ccccc3)CC2)cc1 | 1.09
15 | Cc1cc(=O)[nH]c(SCC(=O)Nc2nonc2C)n1 | 13.7
16 | CN(C(=O)c1ccccn1)c1nnc(-c2cnccn2)s1 | 12.8
17 | CCOC(=O)c1c(C)c(C(=O)Nc2ccccc2)c(C)n1CC | 10.1
18 | CCCCn1c(N)c(N(CC(C)C)C(=O)CSCc2cccc(C)c2)c(=O)[nH]c1=O | 16.1
19 | CCN(CCNC(=O)C1CCN(S(=O)(=O)c2c(C)noc2C)CC1)c1ccccc1 | 3.69
20 | C/C(=N\NC(=S)Nc1ccc(C)cc1)c1cc2ccccc2o1.CN(C)C=O | 14.1

Row | Compound | hERG current change (%, negative = inhibition) at 1uM [%]
21 | O=C(O)c1cn(Cc2ccccc2)nc1-c1ccccc1 | -1.91
22 | Cc1ccc2[nH]c(O)c(N=Nc3ccccc3C)c2c1 | 16.6
23 | Cc1occc1C(=O)N/N=C/c1cccnc1 | 7.08
24 | Cc1cccc2cc(COC(=O)c3cccnc3)c(=O)[nH]c12 | 8.22
25 | CCCC1C(=O)Nc2ccccc2N1C(=O)c1ccc(C(C)(C)C)cc1 (stereo not drawn) | 15.3
26 | CN(C)c1ccc(CNC(=O)C2CCN(S(=O)(=O)c3ccc4c(c3)oc(=O)n4C)CC2)cc1 | 17.2
27 | Cc1ccc(S(=O)(=O)Nc2cccc(C(=O)N3CCCC3)c2)cc1F | 7.87
28 | COC(=O)c1ccc(/C=N/OCC(=O)NC2CCCC(C)C2C)cc1 (stereo not drawn) | 6.75
29 | N#Cc1cc(N2CCOCC2)nc2ccccc12 | 14.4
30 | COc1ccc(CCNC(=O)C2CC(=O)N(c3ccc(C)cc3)C2)cc1 (stereo not drawn) | 13.2
31 | CCN(CC)CCN(C(=O)CCOc1ccccc1)c1nc2c(F)cc(F)cc2s1.Cl | 7.79
32 | CCc1c(C)nc(N)nc1N1N=C1SCC#N | -3.92
33 | O=C(C1CCN(S(=O)(=O)c2cnc[nH]2)CC1)N1CCN(c2ccc([N+](=O)[O-])cc2)CC1 | 14.5
34 | Cc1ncoc1C(=O)NC1CC(C)(C)Cc2c1cnn2-c1ccc(F)cc1 (stereo not drawn) | 4.88
35 | CSC1CCCCC1(O)CSc1nc2ccccc2o1 (stereo not drawn) | 12.1
36 | CCN(CC)S(=O)(=O)c1ccc(N2CCOCC2)c(NC(=O)C2COc3ccccc3O2)c1 (stereo not drawn) | 11.1
37 | O=C(CCn1ccc2ccccc21)Nc1ccc(N2CCOCC2)cc1 | 13.5
38 | Cn1c(CSc2ncn[nH]2)nc2ccccc21 | 7.98
39 | CCOC(=O)C1CCCN(C(=O)c2cc3cc(Br)ccc3oc2=O)C1 (stereo not drawn) | 9.44
40 | O/N=C(\COc1ccccc1O)c1ccccc1 | -0.796

Row | Compound | hERG current change (%, negative = inhibition) at 1uM [%]
41 | COc1ccccc1/C=C/c1nc2ccccc2c(=O)o1 | 10.8
42 | O=C(Nc1cccc([N+](=O)[O-])c1)Nc1ccc2c(c1)OCCO2 | 8.42
43 | CC(C)N1C(=O)CCC1C(=O)NCc1ccccc1Cl (stereo not drawn) | 11.8
44 | Cc1ccc(OCC(=O)N/N=C/c2cccn2C)cc1C | 6.4
45 | NC(=NC(=O)c1ccc(OCC(F)(F)F)nc1)c1ccc(Cl)cc1 | 15.5
46 | CC(=O)N1CCC(=NNc2ncc(C(F)(F)F)cc2Cl)CC1 | 12.8
47 | CCOC(=O)CNC(=O)N1CCCC(C(=O)c2cccc(Cl)c2)C1 (stereo not drawn) | 1.62
48 | CCOC(=O)/C(C#N)=C/c1cccc(F)c1 | 1.58
49 | C(=N/Nc1nccs1)/c1cccnc1 | 0.759
50 | COCc1cc(NCc2ccc(Cl)cc2)nc(C)n1 | 6.57
51 | CN(C)c1ccc(C(=S)N2CCN(C(=S)Nc3cccc4ccccc34)CC2)cc1 | 5.38
52 | O=c1c(/C=C(\O)c2ccc(F)cc2)nc2ccccc2n1-c1ccccc1 | 8.74
53 | FC(F)(F)c1cccc(Cc2noc(CN3CCCC(OCc4ccccn4)C3)n2)c1 (stereo not drawn) | -20.7
54 | O=[N+]([O-])c1cc(S(=O)(=O)C(F)(F)F)ccc1Sc1nc2ccccc2[nH]1 | 11
55 | O=C(CNC(=O)c1ccco1)NCc1nc2ccccc2[nH]1 | 9.41
56 | CC(C)CCNC(=O)CCNS(=O)(=O)c1ccc(Cl)cc1 | 0.252
57 | COc1ccc(Nc2nc(N)nc(CSc3nnc(N)s3)n2)cc1 | 20.7
58 | CCn1c2ccccc2c2nnc(SCCN3CCCCC3)nc21 | -1.75
59 | C=CC#CC1(O)CC(C)[N+](C)(C)CC1C.[I-] (stereo not drawn) | 8.86
60 | Cc1c(C(=O)NCCSCc2cccc(C(F)(F)F)c2)cnn1-c1ccc(F)cc1 | -8.68
